Data on 41 molecules can be found in article PMC12040169 (PLOS Biology, 2025).

Some of the results follow.

This experiment concerns T1, C. trachomatis L2/434/Bu expressing GFP (CTL2-GFP).
T1 construct: L2/434/Bu GFP intracellular growth in HeLa cells
On the set-up: species or system HeLa; C. trachomatis total inclusion area by high-content imaging, normalised to DMSO. Particulars: total inclusion area; 28.5 h, 10 µM; inhibitor. The method in brief:
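Host cell viability was gauged from Hoechst-stained nuclei counts, while chlamydial growth was taken from total inclusion area and inclusion number per well. Cells were fixed and imaged by high-content microscopy once bulk GFP and resorufin fluorescence had been measured.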
As to `Nc1ncnc2[nH]c(SCc3nc4ccccc4n3Cc3ccccc3)nc12` [CBK264148], the “% of control remaining” value was 78.791.

Take `S=C(NCCN1CCCCC1)NCC1CCCO1` (centres unmarked) [CBK268129]: the “% of control remaining” value stood at 82.2572.

Turning to `Cc1c(C(=O)N2CCOCC2)sc2nc(-c3ccc(Cl)cc3)nn12` [CBK010863], the “% of control remaining” value is 85.4642.

For the molecule `CC1CCCN(c2ccc(NS(=O)(=O)c3ccc4[nH]c(=O)[nH]c(=O)c4c3)cc2)C1` (centres unmarked) [CBK286376], the “% of control remaining” value was 109.371.

Consider `Cn1cccc1C(=O)Nc1ccccc1N1CCNCC1` [CBK029450T], for which the “% of control remaining” value came to 93.4003.

On to `O=C(Nc1ccc2[nH]ccc2c1)c1ccc(Br)cc1Cl` [CBK159679], for which the “% of control remaining” value stood at 65.9211.

`CN(C)Cc1ccccc1-n1cc(-c2cccnc2)nn1` [CBK113064]: the “% of control remaining” value is reported as 97.2151.

Turning to `Cc1ccccc1OCC(=O)Oc1ccc(-c2cnc3ccccc3n2)cc1` [CBK264703], the “% of control remaining” value was determined as 105.114.

For `O=C(O)Cc1nn(Cc2ccccc2)c(=O)c2ccccc12` [CBK262315], the “% of control remaining” value is on record as 69.5716.

As to `Cc1c(C(=O)Nc2ccc(S(=O)(=O)NCC3CCCO3)cc2)cccc1[N+](=O)[O-]` (centres unmarked) [CBK267533], the “% of control remaining” value amounted to 100.983.

Take `O=C(Cn1cccn1)NC(Cc1ccsc1)c1nccs1` (centres unmarked) [CBK284666]: the “% of control remaining” value is recorded as 47.8497.

Consider `O=C(Nc1ccc(C(=O)N2CCOCC2)cc1)c1cc(-c2cccnc2)nc2ccc(Cl)cc12` [CBK267725], for which the “% of control remaining” value is reported as 102.059.

Regarding `O=C(C1CCCCC1)N1CCC(c2n[nH]c3ncccc23)CC1` [CBK284905], the “% of control remaining” value was 103.316.

With `Cc1cc(O)ccc1Nc1cc(-c2ccc3c(c2)OCO3)ncn1` [CBK091053], the “% of control remaining” value turned out to be 149.101.

On to `O=C(Nc1ccc(NC(=O)C2CC=CCC2C(=O)O)cc1Cl)C1CCCCC1` (centres unmarked) [CBK268772], for which the “% of control remaining” value is 82.7991.

Take `O=C(c1ccc(Nc2ccnc3cc(C(F)(F)F)ccc23)cc1)N1CCC(O)(c2cccc(C(F)(F)F)c2)CC1` [CBK012467]: the “% of control remaining” value was 107.716.

Consider `O=S(=O)(Nc1ccc(-c2nnn[nH]2)cc1)c1cc(Cl)c(Cl)s1` [CBK154745], for which the “% of control remaining” value amounted to 80.1142.

In the case of `COc1ccc(CN2CCN(Cc3cc(Br)ccc3O)CC2)cc1OC` [CBK263632], the “% of control remaining” value is 80.8412.

Regarding `CC(=O)Oc1c(C)cc(CN(C)C(C)c2ccncc2)cc1C` (centres unmarked) [CBK306915], the “% of control remaining” value is 87.3616.

Regarding `COc1ccc(/C=C(\C)C(=O)NCc2ccc(OC3CCNCC3)cc2)cc1OC` [CBK038914T], the “% of control remaining” value was found to be 88.9189.

In the case of `CC1CC1C(=O)N1CCCC(c2cc3cccnc3[nH]2)C1` (centres unmarked) [CBK282156], the “% of control remaining” value turned out to be 101.944.

In the case of `NS(=O)(=O)c1ccc(CNC(=O)c2ccc(-c3ccc(OC(F)(F)F)cc3)nc2)cc1` [CBK156246], the “% of control remaining” value was 100.374.

On to `O=C(c1ccco1)N1CCN(CC(=O)N2c3ccccc3OCC2c2ccccc2)CC1` (centres unmarked) [CBK239722], for which the “% of control remaining” value is given as 99.8839.

With `COc1ccc(CCCC(=O)NCc2sc(-c3ccccc3)nc2C)cc1OC` [CBK092353], the “% of control remaining” value came to 86.3449.

As for `COCCCn1c(=O)[nH]c2ncc(-c3ccc(O)cc3)nc21` [CBK064425], the “% of control remaining” value amounted to 130.613.

As to `CCN(CC)CC(C)C(O)(c1ccccc1)c1ccccc1` (centres unmarked) [CBK012065C], the “% of control remaining” value was determined as 110.081.

Take `O=C(NCCNC(=O)c1ccccc1I)c1ccccn1` [CBK269357]: the “% of control remaining” value worked out at 94.5642.

Regarding `Cc1ccccc1C(=O)NCCCNC(=O)c1ccccn1` [CBK269172], the “% of control remaining” value stood at 87.2925.

In the case of `O=C(O)CCCn1c(-c2cccc([N+](=O)[O-])c2)nc(=S)c2c1CCCC2` [CBK265657], the “% of control remaining” value was 118.965.

For the molecule `COc1ccccc1-c1ccc(CNC(Cc2ccsc2)c2nccs2)cc1` (centres unmarked) [CBK286315], the “% of control remaining” value was 84.7964.

For `O=C(c1cc(F)c(F)cc1F)N1CCC2(CCN(Cc3cc(=O)[nH]c(=O)[nH]3)C2)C1` (centres unmarked) [CBK132141], the “% of control remaining” value was determined as 79.122.

Turning to `c1ccc(CN2CCN(c3cncc(-c4cccs4)n3)CC2)nc1` [CBK065734], the “% of control remaining” value came out at 74.1927.

As to `Cc1ccc(Nc2nc(N)nc(CN3CCCC3)n2)cc1` [CBK270163], the “% of control remaining” value is given as 83.9074.

For `COc1ccc(-c2ncc(OCc3cccs3)nc2N)c(OC)c1` [CBK145088], the “% of control remaining” value is 116.985.

Take `CC(C)c1ccc(S(=O)(=O)Nc2ccon2)cc1` [CBK044584]: the “% of control remaining” value stood at 110.683.

Consider `COc1ccccc1-c1nccnc1OCCc1c[nH]c2ccccc12` [CBK106807], for which the “% of control remaining” value is on record as 56.2944.

As for `CCN(CC)C(=O)C1CCCN(C(=O)NCC(c2ccccc2)c2ccccc2)C1` (centres unmarked) [CBK156145], the “% of control remaining” value worked out at 33.6963.

On to `O=C(Nc1ccccc1C(=O)O)c1cccc(S(=O)(=O)NCc2ccccc2)c1` [CBK261258], for which the “% of control remaining” value stood at 63.9011.

Turning to `O=C(NNc1ccccc1)c1c(O)c2ccccc2oc1=O` [CBK260878], the “% of control remaining” value was 109.944.

As for `OC(CNCc1cccs1)COc1cccc2c1CCCC2` (centres unmarked) [CBK002239], the “% of control remaining” value is reported as 90.7929.

Take `O=C(N/N=C/c1ccccc1)c1ccccn1` [CBK261640]: the “% of control remaining” value was 104.82.
